Source: the RNAGym collection of RNA variant scans (doi:10.7554/elife.90254)
Read counts are not given, so values of variants with three or more changes are uncertain.

B1: OR4K15 (parent)
chain: GUUAACGGUCAUAGGCCAUGGAAACUAGGAGCACCAUUUCGCUGCCAGUGAAGAAAUGAACAAAGAAAAUCUGGGCCAGGCAGGCAUCAAAAGAAAUAGUCUUGCGCUCAACCAGAAAGUCUGUAAUCAUUUUAAGGGUA

Variants of: B1
Assay: self-cleavage, relative activity (ratio to wild type); higher = more cleavage; in vitro, sequencing; the parent is a self-cleaving ribozyme

Variant | self-cleavage
U39A A64G U72A | 0.13
U38C A92G C105G | 0.03
U39C U70G A91G U127A | 1.76
G41A A63G U87C | 1.51
C40A A91G U97C U103C A125G | 0.09
U43A A54G U120C | 0.76
U39A A67G U130C | 1.1
U39C A90C A92G | 0.66
U39A G50A A94G | 2.17
U38C A68G A118G A126G U131C | 0.87
U39C A68G A92G A96G U124C | 0.73
U39C A54G A82U A95G A114G | 0.09
U38C A62G U103C A129G | 0.52
U39C A47G A91G U130C | 0.66
U39A U57C A67G A94G C109U A114U A117G | 0.01
U39C A51G A64U U108C | 0.02
U43A A67G U132C | 1
U39C C40U A63G U122C U132A | 1.03
U38C A62G G75A | 0.17
U39A A68G U87C A91G U124A | 0.29
U38C U49C U122A A129U | 1.78
U39A A63G A69G U102C G106A A140G | 0.02
G41A U43C A68G | 0.94
G41A A59G U70C | 0.61

Variant | self-cleavage
U43A A82U A118G A135G | 0.1
U38C A92G U100C | 2.6
U39A A62G A63U A69G A91G A125G | 0.43
U39C A63U U108C U124A | 0.03
U38C U39C A56G | 1.9
U43A A64U U122C | 1.71
U39A U49C A56G A96C | 0.81
U38G U108C A114G | 0.01
C40U A117U A129G | 0.68
U39C A66G A69G | 1.33
U39C A60G A94G A126G | 1.35
U39C U108A A134G A135G G138U | 0
U39A A86G A98U | 1.17
U38C A96G A129G A135G | 1.38
U38C U57C U124A | 1.25
U39C A67U G79C | 0.08
U38C A62G A82U A95G | 0.34
U39C A64G A98G | 1.2
U39A A64G G74A | 0
G41A A95G U102C | 1.96
U38C U103C A111G | 0.01
U39C U43G U72C | 0.33
U43A A63G A78G | 0.35
C40U A69G A98U | 2.31

Variant | self-cleavage
U38C A59G U127C | 1.67
C42U A51G U87A A118U U122C | 0.74
U38G U100C A114U | 0.28
U38C A78C A95G A110G | 0.01
G41A A82G C109U A110G U139A | 0.02
U39C U102C U131A | 2.84
U38C U49C U130C | 0.86
U38C A67U U108C | 0
C40U A64G A92G A135G | 1.66
C40A A56G A62C G83A A86U | 1.43
U38C A60G A63G U132C | 1.72
U38C A92G U130C | 1.33
U38C A69G A78U G99A | 0.06
G41A A62G A98G | 0.54
U39C C42U A111U | 0.13
U38C U70C U103C | 0.82
U39C C76U U139C | 0.09
G41U U87C A94G U102A U130C | 0.03
U43A A89U A116G | 0.63
U39C A69G A92G | 0.89
U43A A52G A67G | 0.94
C40U U120C C121U | 2.73
U38C A89G U103C A140G | 1.31
C40U G115U G119A | 0.63

Variant | self-cleavage
U39A A52G A66U U130A U131C | 1.26
U39A G75C U127C | 0.08
U38C A64G A69G A78C G99A U131C | 0.08
U38G A56G A82G U100C U120A | 1.26
U43A A52G A55U U97G U131C | 1.84
U38C A111G A117G | 0.06
U38G A55G U72C | 0.34
U39A A55G A98G U124C | 0.59
U39C A47G A54G | 0.58
U39C A62G A67G | 1.21
U39C A78G U103C | 0.17
U38C U39A A126G A129G | 0.54
U39C U43C A135G | 0
U38C G74U A82U C105U U108C C112U | 0.01
U38C A59U A62G U72C A95U U108C A114G A117G | 0
U39A U43A A78U A91U A116G | 0.14
U38C A90G A114G | 0.19
U38C A95G U100C A111G | 0
C40U U57C A67G A94G | 1.68
U38C A96G C113A | 0.01
U43A A86U A111G A116G | 0
U39C A47U C77U A116G U130C | 0.42
U38C A82G U102A | 0.49
U39A A59U A96G | 1.96

Variant | self-cleavage
G41A A55G U57A A89G | 1.16
U38C A82G U122C | 0.27
U38C A78G U103C U124C | 0.15
U39A A82U A117U | 0.24
U39C A54U U108C A111G | 0.01
U38C A60G U130C | 1.84
U43A A47U U130C | 0.95
U39C C42A A68G U72A | 0.5
U39C U43A A60G U87A A117U A140G | 1.46
U38C U108C A135G G137A U139C | 0.01
U39A U43C A54G U70A A82U A96G A135C | 0.09
U39C A60G A118G | 0.9
U38C U39A U124C U130C | 0.69
U38C U102A U103C U139C | 0.12
U39C U57C A86G A92G U108A A117G A118G | 0.01
U43A A54G A56G U70C | 1.07
U43A A55G A78U U87A A111G | 0.01
U38C U43C U108A | 0.01
U39C A54G U87C A116U | 0.05
U39C A68U U87C | 1.53
U38C U49C A54G A63G G104A | 0.04
G41A A52G A110U | 0.92
U38C A68G A140G | 0.64
U39C U70C A114U | 0.01

Variant | self-cleavage
U39C A52G A56U | 1.41
U39C G50A A78G U132C | 0.23
U39C U103C A110G | 0.2
U38G C42A A91G A96G U97C U100C G106U | 0.01
G41A U43C G74A | 0.17
U39C A56G A60G A68G A111G A116G | 0
U39A G48A A59G A89G U100C | 1.9
U39C A78U U120C | 0.19
U38C G50U A59G U87C A110U | 0.66
C40U A66G U108C U122C | 0.01
U38C U87C U132A | 1.73
U39G A63C A78G U100C | 0.26
C40A U43G A55G A59U A90G A98G U127C | 0.68
U38C A67G A96G | 0.82
U38G A67U U100C | 2.08
U39A A62G A92G A98G | 0.63
U39C U70C A78U A91G A129C | 0.06
C42U A55G A92G U120C U122C | 0.53
U38C U43C A78U U102C U130C | 1
U39C C88U U132A | 1.59
U38C U43A A60G U72C A78G A92G A94G | 0.16
C40U A66G U87C U133A | 1.7
C42U A55U U100A A118G | 0.66
U39A C61U U102C | 1.62

Variant | self-cleavage
U39C A54G U57C | 1.2
U39C A54G A94G | 1.39
C42U U43A U100C A135U | 2.29
C40G G74A U87C U102C U120C | 0.1
U43A A51G A62C A78G | 0.6
U39A A55G A86U U103C U139C | 0.74
U39C A91G U97C C109U A125U U132C | 0.05
C40U A60G U131G U132G G137A | 1.92
U39A A52G A55U U70C A89G U108A A118G | 0.01
U39C G79U A95G A129G | 0.06
U38C A68G U72C | 0.44
U39C U102A A140G | 0.7
U39C U43C A63G A69U A129G | 1.96
G41C U127C U130C | 0.17
U43A A47G U49C U72G A96G U127C | 0.15
U43A A91U A96G U97C A118U | 0.45
U39A A63U U70C | 1.59
U43A A63G A126G | 0.77
C42A A59G A64G U102C A118G U122C | 1.42
U39C U43C A52U A55U A69G A110G | 0.21
U39A U72C U122C | 0.11
U38C U72A U108A U122C | 0.01
U39C A96G U120C | 0.48
